Results on 72 sequences are retold here after publication PMC10726135.

Some of the results follow. At the low end of the ranking the order means little. Measured with an extract: partners may take part in the binding.

For the experiment, the target named is T1, HNF4alpha2 (COS-7 nuclear extract) (UniProt P41235).
T1 sequence: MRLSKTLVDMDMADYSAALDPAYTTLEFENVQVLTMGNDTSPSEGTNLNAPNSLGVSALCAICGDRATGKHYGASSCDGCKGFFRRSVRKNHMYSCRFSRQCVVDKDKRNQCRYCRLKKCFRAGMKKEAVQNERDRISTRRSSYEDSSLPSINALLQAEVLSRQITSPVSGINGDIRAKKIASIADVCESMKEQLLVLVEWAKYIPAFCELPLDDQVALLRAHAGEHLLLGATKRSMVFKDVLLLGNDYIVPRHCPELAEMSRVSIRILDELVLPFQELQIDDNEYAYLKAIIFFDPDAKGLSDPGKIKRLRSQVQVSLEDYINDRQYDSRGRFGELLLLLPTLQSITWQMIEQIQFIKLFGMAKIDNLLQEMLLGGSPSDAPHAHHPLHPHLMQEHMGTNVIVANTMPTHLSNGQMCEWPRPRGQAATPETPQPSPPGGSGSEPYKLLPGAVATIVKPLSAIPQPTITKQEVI
The experiment is described as follows: protein-binding microarray. As to conditions: COS-7 nuclear extract on double-stranded Agilent 4x180k PBM; binding buffer, salt, pH and temperature not given; high values mean tight binding; double strand, one strand shown; sequences stand for … in …GCCTAGGGAGATTAGAGTATCGGTCGA
Turning to ATGGTGACCATGTGATGTGAAGAGTGTGGA, the binding signal (log2 normalized intensity) is 1.38. The figure for AACTGATATGGCTCTGTTTTACAAACACAA is -1.02. The figure for GTCACCACCTTTTTTGGCCTTTACCCCTTG is 4.8; for GACACTTCCAGCCAAACCAGGTCATGCATT it is -0.383; for CTGGGAATGACATTTTGGACTACTTCATGT it is 1.33.

As for TCTACTGCTCTATTTAGACTCAGCATGTCT, the binding signal (log2 normalized intensity) was -0.799. For the sequence CCAGAGAAGCTGTGTAACCCTGGAGCCATA, the binding signal (log2 normalized intensity) was -1.06. The figure for TTGGACAAGGTAACCCCCAACATTCTTTCC is 2.79. The figure for GACCCCTCCTCCCCCCGCCGCATCTACCAG is 5.54. On to ATTGTTCCCTTGCTCCACCCTTCTATCCCC, for which the binding signal (log2 normalized intensity) is 3.08.

As to CTGAGTGGAGGCCCAGTAAGTCCCACCCAC, the binding signal (log2 normalized intensity) came to 2.11. As for TAGTATCCCTGAGTCATTTTTAGAAGCTCT, the binding signal (log2 normalized intensity) was -0.614. On to CATCAGGTGAGATAAGAAGACTCCAGGGGA, for which the binding signal (log2 normalized intensity) is -1.16.

For AGTGCTGCATGCAAAAAGGCTGACCTTTGA, the binding signal (log2 normalized intensity) was found to be 7.82.

On to TGCAGAAAAGGCCCCAGGGATTGCACAGGA, for which the binding signal (log2 normalized intensity) was -1.3. As for TTTCTCCATACCTCTTGCGTGTTATCTATG, the binding signal (log2 normalized intensity) was determined as 1.57. The figure for AAGTCCCAGAAGTTCTAAGGTGGGAATGCT is -1.02; for AAACCAAGCTGTCCGACTGCACACCGTCCA it is -1.08; for AAGCAGAAGCTGCACACATGTCAAAGGTCA it is 6.19.

As for TGCCTTGGCCTCTGCAGACATGGACTCTGG, the binding signal (log2 normalized intensity) was found to be 4.08. The figure for CTGTGCTTTGTTTACTTAACCTTTGATCAT is 7.05; for CCGGACGCGTCCTCGGCTCTGCGCAGGCGC it is -0.728.

As for AAACCTTTGCCCAACAGGATTAGTGCTTCT, the binding signal (log2 normalized intensity) was -0.149. Turning to TGACTTTAAGTTGACTCCAATGCTCGTTGA, the binding signal (log2 normalized intensity) amounted to 0.968. The figure for GAGTGGCCTTTAGAACCGGGGAGATACTGT is 0.581.

ATCACATTCTAATCCTCTGGTCTTTGCCCC: the binding signal (log2 normalized intensity) came to 4.6. As to CCAAACAAATGGAGAAGGTCTAAGTAAACT, the binding signal (log2 normalized intensity) is -1.19. Then GACCTTTGCCCAAGCCGTTCCCTGTACCTA, with 4.52; and TGGCCACTGGCCCAGCGGATTAATATCCAG, with -1.13.

With ATCAGGGGTCCTGGCAGCACCTGAAGAATT, the binding signal (log2 normalized intensity) was -1.17.

Take CATAGCAAGAGTGACCTTTGCTCCAGTTCC: the binding signal (log2 normalized intensity) came to 7.45.

For AAATAGGCAAGACTGCCACCTACTGACCAA, the binding signal (log2 normalized intensity) was -1.16. Then ACCTGAAAAACCTCTCTCCAGGTACAAGGA, with -1.05; and TAACCAGGGAGTGGCAGCATTGTGCTGAAA, with -0.512. As to TGGGCTGTAAAAATCTATGGCAAAGGTCTC, the binding signal (log2 normalized intensity) stood at 1.83. Then CCTTTGGACTGTGACCCCACCTCTCAGACA, with 4.83; and ACCCTTCCCTAAGATTTATCCCAAATGTTT, with 0.845. The figure for ATGTGCCTGATGGGATGAGAGAGCCCCTGT is 1.6; for AACAGCGAACATGAGGAATAAACTTCTGTC it is -1.09. Then CTGGCAGGGAGGAGGGATCAAGCAGGTGAC, with -0.731; and ACATCAGAAGTTGGACTTTGTACATTCCAA, with 7.69. In the case of GGGGTGGGGAGGATAGCAGCCCAGCAAAGA, the binding signal (log2 normalized intensity) is -1.05. The figure for TCAGGCCCAGAAACACTGAACCTTGTCCCA is 3.15; for TCCGAGCCATTTTGGAGCCGGTGTCAGTTT it is 1.47. For CCTGAAAGGTAGGCAGAGAGGCTGCTCAGT, the binding signal (log2 normalized intensity) was -0.927. In the case of TGCCTGCAGGAGAGAGCAAAGTCCACGCAT, the binding signal (log2 normalized intensity) came out at 6.29.

Regarding AGCTCTTGCTGGTCAAGCTAAGCACAACTG, the binding signal (log2 normalized intensity) is -1.19. Then GCTCTCCCATAAGAATCCTTTTCATTCTTT, with 0.393; and GGGGCTGGCATGTCTCTGGTCAGGGAGGGC, with 0.599; and TGTTTATCCTTCAACAATTCTATGAGTAGG, with 1.3. As for TTGGGTGACTTTCTTCCTATGGGATCAAAG, the binding signal (log2 normalized intensity) was 0.696. With ACTTGCCCTCAGTAAAGGACAAAGTCAACG, the binding signal (log2 normalized intensity) stood at 0.532. As for GGAGGGGAAGAAAGGAATGTGCCTGCAAGT, the binding signal (log2 normalized intensity) is -1.11. Consider AGTGGGTCTAGGTTCTGGGGTGATTACCCT, for which the binding signal (log2 normalized intensity) amounted to 1.62. Consider TGACCTGGTACTATGACCTTTCACCTTTTA, for which the binding signal (log2 normalized intensity) came out at 6.99. For the sequence ACTCTGGGAGCCCTGGGGTAATAAATAAAG, the binding signal (log2 normalized intensity) was -0.99.

Regarding TTTCCAAAGAGCAGCTAGCTCCAGTTGGTT, the binding signal (log2 normalized intensity) was -0.859. The figure for AGCTAATCTAGAGACACTATGTGCATTCCA is -0.978; for TTCCCAGCTAAATAAATAACTCTAAGAAAT it is -1.12; for CTCACGGTAACAGCCGGAGAGGCAAGTATG it is -0.495. Regarding ACTCAAAGGTCAAATGACAGAAGCAGGACT, the binding signal (log2 normalized intensity) worked out at 1.31. Then AGAGTCTGACAGAACTAAGCTGTTGCGTAA, with -1.12; and GACATGAAGGACATAAATGTGCCCAGATAA, with 0.583; and CTTGTCTGATAAGATTCAGAACCCATTAAT, with -0.701. Then CCCATCCATTTCCCATCCCCAGAGCCCCCT, with 5.39; and AAGACACAGAGAAAAAGAAGGTTGGGCGTT, with -1.18.

On to CATCTAAGACTTTATTTGAAGAAATGGTGG, for which the binding signal (log2 normalized intensity) was determined as 1.59. In the case of TGTCTTCCTCTCTGAAGGATTTAAATGGAA, the binding signal (log2 normalized intensity) is 1.4. As to GAATTGGAAGGCAAAGTTCAACCCTGAATG, the binding signal (log2 normalized intensity) amounted to 1.31.

Consider AGGTGAATCAACGATAAGGGATGATAAGGC, for which the binding signal (log2 normalized intensity) was -1.15. Then ATAAACTTCCAGCCATTTTGTGAGCTCTGA, with -0.884; and GAGGGAAAGGTCAAGAGAATTACAAACAGC, with -0.939.
